The record followed here is the supplement of paper PMC3334620.

The full ranking holds about 33,000 sequences; the median of “E-score (-0.5 to 0.5)” is about -0.036, and the highest 2% start at about 0.37. The list shows a part of the results.

In the assay the target is T1, Yer064c (UniProt P40041).
T1 sequence: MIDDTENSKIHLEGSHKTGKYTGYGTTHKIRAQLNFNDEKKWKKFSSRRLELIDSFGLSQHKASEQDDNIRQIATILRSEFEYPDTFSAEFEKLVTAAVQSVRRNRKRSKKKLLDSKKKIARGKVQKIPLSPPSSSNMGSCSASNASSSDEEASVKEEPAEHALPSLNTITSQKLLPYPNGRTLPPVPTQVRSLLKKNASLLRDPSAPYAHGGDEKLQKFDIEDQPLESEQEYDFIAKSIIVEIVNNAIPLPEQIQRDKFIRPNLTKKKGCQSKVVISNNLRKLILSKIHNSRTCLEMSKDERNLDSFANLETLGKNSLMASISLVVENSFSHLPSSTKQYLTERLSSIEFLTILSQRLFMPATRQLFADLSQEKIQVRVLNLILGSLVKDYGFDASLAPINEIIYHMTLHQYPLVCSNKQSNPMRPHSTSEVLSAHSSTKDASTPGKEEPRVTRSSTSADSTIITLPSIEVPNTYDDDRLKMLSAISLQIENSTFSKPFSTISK
In words: PBM E-score (8-mer binding enrichment) (E-score (-0.5 to 0.5)); higher = stronger / more preferred TF binding; most listed sequences are background and not binding sites. The following applies: protein concentration: 200 nM; construct: GST-full length. Put shortly:
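GST-tagged yeast TFs (full-length or DNA-binding domain) were made by PURExpress in vitro transcription/translation and applied at about 100-200 nM to universal all-10-mer Agilent arrays. The arrays were made double-stranded by primer extension, on fresh or once-stripped slides. Bound protein was detected with fluorescent anti-GST, and scans were normalised with masliner. Each ungapped eight-base word, pooled with its reverse complement, received an E-score (modified Wilcoxon-Mann-Whitney statistic) from the Universal PBM Analysis Suite.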
With CAGTAAAG, the “PBM E-score” value turned out to be 0.0694.
Then ATTGGCCC, with -0.172; and CCGCGGAC, with -0.0248.
Then CACCAGCG, with -0.128; and AACTTAAA, with 0.117.
The result for ATACTACA reads 0.0739.
With AATGAGAG, the “PBM E-score” value is -0.112.
As to AACACTGT, the “PBM E-score” value was -0.0707.
The result for CTTGCCCA reads -0.11.
Regarding GACGGAAA, the “PBM E-score” value turned out to be 0.00096.
Then ACACGGGG, with -0.249; and AGTCAGTG, with 0.427; and AGGAAACC, with -0.158.
Then AAATTTCG, with -0.109.
Then AGCAGCCT, with -0.284.
In the case of GGGTAAAA, the “PBM E-score” value is 0.127.
For the sequence CCGTAAAA, the “PBM E-score” value worked out at 0.00527.
Then CCCCCGCG, with -0.257; and CAGCAAAA, with -0.18.
The result for GCATTCGA reads -0.0637; that for TCGTCTCA, 0.0637; that for CTCTTACC, 0.0718.
The result for AAAGCTAC reads -0.162.
Regarding CACCAACG, the “PBM E-score” value is -0.0961.
The result for CTCCTCTA reads -0.0335.
Then CTTAAAAC, with 0.0823; and CGCCGGCG, with 0.22; and CGCTAGAC, with -0.0529.
Then CATTAAAG, with -0.0357.
Regarding ACAACACC, the “PBM E-score” value was -0.0036.
Turning to AATCGGGT, the “PBM E-score” value stood at 0.0223.
For the sequence CAGTCGTA, the “PBM E-score” value worked out at 0.265.
The result for GGCCCCCC reads -0.349; that for GAAATAGA, 0.0343.
Then GTCTCGCA, with 0.174; and GAAGTACC, with -0.122; and AGACCGTC, with -0.26.
The result for CCTCCGCG reads -0.249; that for TATAGAAA, 0.0536.
Regarding AAAGTACC, the “PBM E-score” value is -0.0733.
The result for CCGATGTA reads -0.124.
The result for CTTCTACC reads -0.118; that for ATAGCCAC, 0.128.
Then ACATAGGC, with -0.294; and CTGCGGCC, with -0.379.
Take CTGCGGGC: the “PBM E-score” value is -0.0933.
Then AATATCAG, with -0.124; and ACTATAGT, with 0.259; and GTTCGCAA, with 0.102.
The result for ATCGAAAA reads -0.0181; that for CTGAAATA, 0.0578; that for AACCTTCC, -0.153.
Then GCGTCACC, with -0.232.
For CAGAAACG, the “PBM E-score” value was -0.112.
Then TAATTACA, with 0.0531.
The result for AAAGTTTA reads 0.00518; that for GATGAAAC, 0.0107.
The result for CGGGCGCA reads -0.168.
As for GGTTTACA, the “PBM E-score” value is -0.0888.
Then AGCGGGGC, with -0.247; and ACCATACG, with -0.0624.
The result for AGCGAATG reads -0.188; that for AAGGCCTG, -0.162; that for ATTAGCTG, 0.0658.
Then AGTAACGC, with 0.0217.
With AAACATGC, the “PBM E-score” value was -0.0124.
Then CTCATGAG, with 0.3.
Then GAACTAGC, with -0.171.
The result for CCATAAGA reads 0.0201; that for ATCCAAAA, 0.0764; that for GCTTCAGA, -0.0612.
Consider CCTAGGCC, for which the “PBM E-score” value is -0.316.
The result for AGATTCAG reads 0.167.
Then CAAAGGGG, with -0.227; and ACTCTCCT, with -0.0555; and CGGAGTGA, with 0.196.
Consider AGCCAGCG, for which the “PBM E-score” value is -0.15.
In the case of ACTCTCTA, the “PBM E-score” value turned out to be 0.18.
Then CAAAGATC, with -0.00684; and AATGTCAG, with -0.0332; and GCCGACGC, with -0.14.
Then ACCGGCAA, with -0.11; and AACAGCCG, with -0.253.
The result for CAGATGAA reads -0.0869; that for GACGACAC, 0.125; that for ACAGCATA, -0.101.
